From PMC4336329 (PLoS ONE, 2015) come the findings set out here.

Among all 310,000 compounds or so, about 14,000 (4.5%) showed an effect of 50% or more. The effect is printed as a negative number. The list shows a part of the results.
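Further: peak tail current of the secondary pulse compared with the same well before compound.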

The target in this test is human ether-à-go-go-related gene (hERG) potassium channel (human, UniProt Q12809). As to the kind of experiment: primary screen, population patch clamp on CHO cells stably expressing hERG.
Chain of human ether-à-go-go-related gene (hERG) potassium channel (Q12809 whole entry, looked up): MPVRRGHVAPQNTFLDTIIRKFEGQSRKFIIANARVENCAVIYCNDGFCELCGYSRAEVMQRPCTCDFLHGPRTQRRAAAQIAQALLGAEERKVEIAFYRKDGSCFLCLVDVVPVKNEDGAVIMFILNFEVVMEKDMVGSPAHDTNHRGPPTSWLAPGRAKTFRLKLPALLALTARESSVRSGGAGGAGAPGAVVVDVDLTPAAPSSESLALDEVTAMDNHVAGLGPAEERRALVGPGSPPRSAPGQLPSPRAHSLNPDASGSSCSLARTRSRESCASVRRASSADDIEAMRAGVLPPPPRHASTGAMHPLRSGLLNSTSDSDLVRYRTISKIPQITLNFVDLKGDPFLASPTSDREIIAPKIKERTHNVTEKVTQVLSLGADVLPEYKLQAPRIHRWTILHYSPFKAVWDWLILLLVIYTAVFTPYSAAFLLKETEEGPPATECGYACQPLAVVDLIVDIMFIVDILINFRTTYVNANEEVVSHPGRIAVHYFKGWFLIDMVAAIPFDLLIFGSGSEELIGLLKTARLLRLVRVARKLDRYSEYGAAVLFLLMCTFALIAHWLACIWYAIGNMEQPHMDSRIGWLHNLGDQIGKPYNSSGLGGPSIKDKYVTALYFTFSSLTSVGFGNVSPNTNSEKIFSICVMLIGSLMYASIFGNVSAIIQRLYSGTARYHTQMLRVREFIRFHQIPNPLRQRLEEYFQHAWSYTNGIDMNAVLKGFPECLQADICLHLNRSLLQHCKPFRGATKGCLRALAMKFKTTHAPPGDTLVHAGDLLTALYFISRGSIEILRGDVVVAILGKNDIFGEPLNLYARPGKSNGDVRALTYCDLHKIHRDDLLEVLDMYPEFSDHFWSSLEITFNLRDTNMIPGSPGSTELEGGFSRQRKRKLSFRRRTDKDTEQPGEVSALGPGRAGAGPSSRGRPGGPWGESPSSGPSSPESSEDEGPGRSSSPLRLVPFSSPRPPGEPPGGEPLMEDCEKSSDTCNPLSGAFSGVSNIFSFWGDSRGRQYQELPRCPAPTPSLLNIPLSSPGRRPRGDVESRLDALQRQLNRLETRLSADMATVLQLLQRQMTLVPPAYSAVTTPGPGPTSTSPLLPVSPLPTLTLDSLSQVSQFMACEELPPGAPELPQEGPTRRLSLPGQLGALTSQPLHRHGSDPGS
Turning to `CSCC[C@H](NC(=O)OC(C)(C)C)c1nnc(SCc2ccccc2)o1`, the “hERG current change (%, negative = inhibition) at 10uM” value is listed as -51.3%. With `CCc1ccc(-n2cc(-c3ccc(F)cc3)[n+]3c2SCCC3)cc1.[Br-]` the figure was -71.7%.

As to `CC(C)CNS(=O)(=O)c1cc2c3c(c1)CC(=O)N3CCC2`, the “hERG current change (%, negative = inhibition) at 10uM” value was 11.6%.

`O=c1cc(CO)occ1OCc1cccc(F)c1`: the “hERG current change (%, negative = inhibition) at 10uM” value is on record as -9.93%. As for `Cc1ccc2occ(CN3CCN(c4ccccc4)CC3)c(=O)c2c1`, the figure is -34%; as for `COC(=O)c1ccc(-n2nnnc2SCC(=O)Nc2ccccc2OC)cc1`, 8.07%; as for `COc1cc(CNCc2cccs2)ccc1OCc1ccccc1.Cl`, -31.8%.

In the case of `Cc1cc(C)c2c(c1)cc(C)c1nnc(SCC(=O)Nc3cc(C)on3)n12`, the “hERG current change (%, negative = inhibition) at 10uM” value is on record as -1.35%.

Turning to `COc1ccc(C(=O)NCCS(=O)(=O)N2CCCC2)cc1`, the “hERG current change (%, negative = inhibition) at 10uM” value is recorded as -9.31%.

`CC(C)OC(=O)c1ccc(NC(=O)C2C3CC4OC(=O)C2C4C3)cc1` (stereo not drawn): the “hERG current change (%, negative = inhibition) at 10uM” value is 8.54%. As for `CCCCn1c(SCC(=O)N2CCCC2)nnc1-c1ccccc1`, the figure is 5.34%. With `c1ccc2c(CN3CCSCC3)cccc2c1` the figure was 11.1%. As for `CC(NC(=O)CCOc1ccccc1)c1ccccc1` (stereo not drawn), the figure is 7.44%; as for `CC1CCN(Cc2nc(Cl)c3c4c(sc3n2)CCC4)CC1`, -0.304%; as for `CCCCC(CCC(=O)Nc1cc([N+](=O)[O-])ccc1O)C(=O)O` (stereo not drawn), 14%. Regarding `CC(C)COc1cccc(-c2cc(C(=O)Nc3ccon3)c3ccccc3n2)c1`, the “hERG current change (%, negative = inhibition) at 10uM” value is 23.6%. Turning to `CC(C)N1C(=S)SC2CS(=O)(=O)C=C21` (stereo not drawn), the “hERG current change (%, negative = inhibition) at 10uM” value is recorded as -5.07%.

`Cc1cccc(N2C(=O)c3cccc4cccc(c34)C2=O)c1`: the “hERG current change (%, negative = inhibition) at 10uM” value was 20.4%. With `CCc1ccccc1NC(=O)CN(c1cccc(OC)c1)S(C)(=O)=O` the figure was 11.5%. Regarding `Cc1onc(C(=O)N2CCN(C(c3ccccc3)c3ccccc3)CC2)c1[N+](=O)[O-]`, the “hERG current change (%, negative = inhibition) at 10uM” value is -3.07%. With `S=C(NCc1cccnc1)Nc1cccc2ccccc12` the figure was -9.3%; with `CC(=O)N(CCC1(c2ccc(C)cc2)CCOC(C(C)C)C1)Cc1ccco1` (stereo not drawn), -5.3%. With `O=c1cc(O)n(-c2ccc(F)cc2)c(=S)[nH]1` the figure was 11.3%; with `O=C(Cc1ccccc1)N/N=C/c1ccc([N+](=O)[O-])s1`, 2.97%; with `S=C(NCCc1ccccn1)Nc1cccc(Cl)c1`, 7.55%. With `COc1ccc(OCC(=O)Nc2ccc(OC)c(S(=O)(=O)N3CCCCC3)c2)cc1`, the “hERG current change (%, negative = inhibition) at 10uM” value is -18.6%. Consider `O=C(Nc1nc2cc3c(cc2s1)OCO3)C1=COCCO1`, for which the “hERG current change (%, negative = inhibition) at 10uM” value is recorded as 0.541%. Regarding `NC(=O)c1ccc(C(=O)Nc2ccc([As](=O)(O)O)cc2)cc1`, the “hERG current change (%, negative = inhibition) at 10uM” value stood at 24.4%. As to `CCOc1cc(N2CCOCC2)c(OCC)cc1NC(=O)CSc1n[nH]c(N)n1`, the “hERG current change (%, negative = inhibition) at 10uM” value stood at 38.2%. In the case of `Cc1ccc(-n2c(=O)cc(N3CCN(C(=O)c4ccco4)CC3)[nH]c2=O)cc1`, the “hERG current change (%, negative = inhibition) at 10uM” value stood at 6.92%.

Regarding `CO/N=C/NC(=O)c1c(OC)ccnc1Oc1ccccc1`, the “hERG current change (%, negative = inhibition) at 10uM” value amounted to 1.7%. As for `Cl.O=C(O)C(c1ccccc1)N1CCCC1` (stereo not drawn), the figure is 8.93%; as for `O=C(NCC1CCCO1)c1nn2c(C(F)(F)F)cc(-c3ccco3)nc2c1Cl` (stereo not drawn), 1.16%. With `Cc1ccc(C(=O)NC2CCCC2)cc1S(=O)(=O)N1CCCCC1` the figure was -11.7%; with `O=C1NC[C@@H](Cc2ccc(O)cc2)N(CCc2cccc3ccccc23)C1=O`, 0.501%. With `COC(CNc1nc(SC)nc2sc3c(c12)CCN(C)C3)OC` the figure was -52.5%; with `O=C(Nc1ccc(S(=O)(=O)Nc2nccs2)cc1)c1ccc(S(=O)(=O)N2CCOCC2)cc1`, 15%; with `Cn1c(=O)c([N+](=O)[O-])c(N2CCSCC2)c2ccccc21`, -5.97%. As for `CCOC(=O)N1CCN(C(=O)c2cc(OCC)c(OCC)c(OCC)c2)CC1`, the “hERG current change (%, negative = inhibition) at 10uM” value is -3.23%. As for `CCc1cc2c(COC(=O)CCNS(=O)(=O)c3cccc(C(F)(F)F)c3)cc(=O)oc2cc1O`, the figure is -13.3%; as for `O=C(Nc1ccccc1N1CCN(c2ccccc2)CC1)c1cccc(F)c1`, -8.05%.

With `CCN(CCCNC(=O)CNC(=O)Cn1cnc2ccccc2c1=O)c1ccccc1`, the “hERG current change (%, negative = inhibition) at 10uM” value was 2.96%. Take `CC(C)NC(=O)COC(=O)c1cc(Br)ccc1Cl`: the “hERG current change (%, negative = inhibition) at 10uM” value is on record as 8.58%. As for `COCc1cc(C)nc(N/N=C/c2ccc(-c3cc(C(=O)O)ccc3Cl)o2)c1C#N`, the figure is 24.5%; as for `COCCNC(=O)C1CCC(=O)N1S(=O)(=O)c1ccc(C)cc1` (stereo not drawn), 17.6%; as for `Cn1c(-c2ccsc2)c(-c2cccs2)c2cc(-c3ccc4cc[nH]c4c3)ccc21`, 12.1%. `COc1ccccc1OCc1nc2ccccc2[nH]1`: the “hERG current change (%, negative = inhibition) at 10uM” value is on record as -1.03%. `CCc1nnc(NS(=O)(=O)c2ccc(N/C=C/C(=O)c3ccc(C)cc3)cc2)s1`: the “hERG current change (%, negative = inhibition) at 10uM” value was 13.5%. For `CCc1ccc(OCCCC(=O)O)c(Br)c1`, the “hERG current change (%, negative = inhibition) at 10uM” value is on record as -0.471%. Take `O=S(=O)(c1ccc(C2CCCCC2)cc1)N1CCN(c2ncccn2)CC1`: the “hERG current change (%, negative = inhibition) at 10uM” value is given as -1.38%. As to `CCC1(c2ccccc2)NC(=O)N(CC(=O)NCCN2C(=O)S/C(=C\c3cccnc3)C2=O)C1=O` (stereo not drawn), the “hERG current change (%, negative = inhibition) at 10uM” value was found to be 6.2%. As for `COC(=O)c1ccc2c(c1)C(C)(C)C(/C=C/c1ccc(OC)c(OC)c1OC)=[N+]2C.[I-]`, the figure is -2.88%. Turning to `C1CCc2nnc(-c3nnc4n3CCCCC4)n2CC1`, the “hERG current change (%, negative = inhibition) at 10uM” value came out at 4.11%. For the compound `Nc1nc(N)c2[nH]cnc2n1`, the “hERG current change (%, negative = inhibition) at 10uM” value was -0.93%. As for `Clc1cccc(Oc2cnc3ccccc3n2)c1`, the figure is -25.8%; as for `Cc1nccn1CCCN1C(=O)CNC1=S`, 1.54%; as for `CCCCOc1ccc(C(=O)NCC(=O)NCC(c2ccc(OC)cc2)N2CCOCC2)cc1` (stereo not drawn), -14.1%. With `O=C(Cn1nnc(N2CCCCC2)n1)c1ccc(Cl)c(Cl)c1` the figure was 8.09%; with `O=S(=O)(c1ccccc1)N1CCC(O)(CSc2ccccc2)CC1`, 15.6%.

For the compound `O=C(c1ccccc1Oc1ccccc1)N1CCN(c2ccccc2F)CC1`, the “hERG current change (%, negative = inhibition) at 10uM” value is -26%. As for `COc1ccc(-n2cnnc2SCC(=O)c2cc(C)n(Cc3cccs3)c2C)cc1`, the figure is -73.5%; as for `CCN1CCN(S(=O)(=O)c2cc(C)c(OC)cc2C)CC1`, 5.31%.

As to `O=C(O)CC/C(=C\c1ccc(N2CCCC2)c([N+](=O)[O-])c1)c1nc2ccccc2s1`, the “hERG current change (%, negative = inhibition) at 10uM” value turned out to be 25.1%.

On to `Cc1onc(-c2c(F)cccc2Cl)c1C(=O)NCCO`, for which the “hERG current change (%, negative = inhibition) at 10uM” value was determined as 2.87%. With `Cc1ccc2c(c1)N(CC(=O)N1CCN(c3nc4ccccc4s3)CC1)C(=O)C(C)O2` (stereo not drawn) the figure was -54.5%. As for `COC(=O)C1=C(C)N(C)C(=O)NC1c1cc(Cl)cc(Cl)c1OC` (stereo not drawn), the figure is -5.7%; as for `COc1cc(NS(=O)(=O)c2ccc(NC(=S)NC(=O)c3sc4ccccc4c3Cl)cc2)nc(OC)n1`, 9.83%. Turning to `C=C(C)[C@@H]1[C@H]2OC(=O)[C@@H]1[C@]1(O)C[C@H]3O[C@]34C(=O)O[C@H]2[C@]14C.CC(C)(O)[C@@H]1[C@H]2OC(=O)[C@@H]1[C@]1(O)C[C@H]3O[C@]34C(=O)O[C@H]2[C@]14C`, the “hERG current change (%, negative = inhibition) at 10uM” value was -3.34%. As for `CCCn1nnc(NC(=O)c2cccnc2Cl)n1`, the figure is 12.2%; as for `COCCN1CN=C(Nc2nc3ccccc3o2)NC1`, 13.5%. As for `COc1c2c(nc3ccccc13)OC(C(C)(O)COC(C)=O)C2` (stereo not drawn), the figure is -12.7%; as for `CC(=O)O.N=c1ccn2c(n1)OC1C(O)C(CO)OC12` (stereo not drawn), 15%. As for `CCOC(CNC(=O)c1ccc(N2CCc3ccccc32)c([N+](=O)[O-])c1)OCC`, the figure is -27.8%. For the compound `O=C(O)c1cc(N2CCOCC2)nc2ccccc12`, the “hERG current change (%, negative = inhibition) at 10uM” value is given as 17.4%. Consider `COc1ccc(/C=N\Nc2ccc([N+](=O)[O-])cc2[N+](=O)[O-])c(C(=O)O)c1OC`, for which the “hERG current change (%, negative = inhibition) at 10uM” value is given as -2.9%.

Regarding `CCCn1ncc(CN2CCC(N3CCC(C(=O)N4CCOCC4)CC3)CC2)c1C`, the “hERG current change (%, negative = inhibition) at 10uM” value amounted to 14.4%. In the case of `COc1ccc(C(=O)OCC(=O)Nc2cc(C)on2)cc1S(=O)(=O)N1CCOCC1`, the “hERG current change (%, negative = inhibition) at 10uM” value is recorded as 3.65%.

As for `Cc1csc(SC(C)C(=O)Nc2ccc3c(c2)OCCO3)n1` (stereo not drawn), the “hERG current change (%, negative = inhibition) at 10uM” value is 6.25%. With `NC(=O)C1=C[C@H](c2coc3ccccc3c2=O)C[C@H](OCc2ccc(CO)cc2)O1` the figure was -28%; with `CCOC(=O)c1cc(C#N)c(N2CCN(C(=O)c3cccc(C(F)(F)F)c3)CC2)nc1C(F)(F)F`, -0.761%. With `Cc1cccc(CNC(=O)Cn2ccc3cc(S(=O)(=O)N4CCCCCC4)ccc32)c1` the figure was 2.57%; with `Cc1ccc(NC(=O)CS(=O)(=O)c2cn(CC(=O)N3CCOCC3)c3ccccc23)cc1`, -0.0981%; with `O=C(COc1ccc2c(c1)oc(=O)c1ccccc12)N[C@@H](Cc1c[nH]c2ccccc12)C(=O)O`, 14.7%. As to `CCCC(=O)N(CCc1ccc(OC)cc1)Cc1nc2ccccc2c(=O)[nH]1`, the “hERG current change (%, negative = inhibition) at 10uM” value is -8.61%.

For the compound `CCOc1ccc(Cl)cc1Nc1nc(NCCO)nc(N2CCCC2)n1`, the “hERG current change (%, negative = inhibition) at 10uM” value is listed as -2.56%. In the case of `CCOC(=O)COc1ccc(C(=O)NC2CCCCC2)cc1`, the “hERG current change (%, negative = inhibition) at 10uM” value is listed as -1.66%.

Take `c1coc(-c2nnc(-c3ccco3)nn2)c1`: the “hERG current change (%, negative = inhibition) at 10uM” value amounted to 13.6%.
